According to the supplement of paper PMC4166925:
± gives the standard deviation of the averaged measurements. In all, about 33,000 sequences were measured (“E-score (dimensionless, -0.5 to 0.5)”: median about -0.049, highest 2% from about 0.37 on). The list shows a part of the results.

Test system: T1, PmTbr T-box DNA-binding domain (GST fusion)
T1 sequence: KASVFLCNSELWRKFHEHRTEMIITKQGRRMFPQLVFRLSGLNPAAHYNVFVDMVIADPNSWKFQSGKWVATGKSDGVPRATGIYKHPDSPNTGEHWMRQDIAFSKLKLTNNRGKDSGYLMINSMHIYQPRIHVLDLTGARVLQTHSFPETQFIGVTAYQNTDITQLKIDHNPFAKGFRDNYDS
Assay: PBM E-score of 8-mer (E-score (dimensionless, -0.5 to 0.5)); Tbr is Tbrain of the sea star Patiria miniata (Pm) or the sea urchin Strongylocentrotus purpuratus (Sp); higher = stronger binding preference; most listed sequences are background and not binding sites
Conditions: the construct has about 5 more residues each side
Summary of the method: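 GST-fused Tbr T-box DNA-binding domains (the whole T-box plus about five flanking residues) were expressed in BL21 E. coli at 20 °C and purified by glutathione affinity chromatography. Universal Agilent oligonucleotide arrays were made double-stranded by primer extension, incubated with 200 nM protein in PBS (pH 7.5), then scanned and quantified. Every ungapped 8-mer was scored from probe intensities. The Universal PBM Analysis Suite gave each word an enrichment E-score, averaged over duplicate arrays.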

| Sequence | PBM E-score of 8-mer |
| --- | --- |
| CGGTAGGC | 0.0808 ± 0.045 |
| CGCAGTCC | -0.0841 ± 0.063 |
| GAGGCTTA | -0.18 ± 0.036 |
| CTTCCAAC | -0.107 ± 0.058 |
| CGTAGCAA | 0.0169 ± 0.038 |
| AGTGTACA | -0.126 ± 0.048 |
| AGGGGAGA | -0.0806 ± 0.032 |
| TTTTAAAA | -0.201 ± 0.035 |
| TATAGTAA | -0.179 ± 0.11 |
| CCCCCCTC | -0.272 ± 0.073 |
| TAGTACGA | -0.175 ± 0.015 |
| AAGCGCAT | -0.137 ± 0.061 |
| CGAGTCGC | 0.158 ± 0.06 |
| ACCAATTA | -0.0574 ± 0.015 |
| GACAACAC | 0.391 ± 0.014 |
| TCCCGCAA | -0.211 ± 0.0079 |
| CGTGACGA | 0.331 ± 0.031 |
| ACACTACA | 0.185 ± 0.076 |
| ACGGAGGC | -0.192 ± 0.1 |
| GGAGTTGA | -0.0606 ± 0.067 |
| GATCACGC | 0.287 ± 0.017 |
| CTCCTAGC | 0.0648 ± 0.041 |
| ACGAATAG | 0.0308 ± 0.068 |
| CCAGTAGG | 0.1953 ± 0.0019 |
| TATTACCA | -0.0211 ± 0.043 |

| Sequence | PBM E-score of 8-mer |
| --- | --- |
| ACTCTCCG | -0.0258 ± 0.0077 |
| ACCCACTG | -0.124 ± 0.041 |
| CAGTACCC | -0.00453 ± 0.072 |
| GGCGTTCA | -0.0159 ± 0.093 |
| ACCTAAAA | -0.0417 ± 0.06 |
| TATACAGA | -0.169 ± 0.076 |
| CGCATACA | -0.0826 ± 0.01 |
| GCGGTAGA | -0.079 ± 0.075 |
| ACTCTTAT | -0.0869 ± 0.047 |
| CATCGCAC | 0.373 ± 0.023 |
| TCAGGACA | -0.115 ± 0.067 |
| CGCGTCTC | -0.0373 ± 0.037 |
| GACCGTTA | -0.0787 ± 0.011 |
| CTAGTCGC | 0.132 ± 0.046 |
| CAGGAACA | -0.026 ± 0.01 |
| CTAGACAA | -0.0799 ± 0.049 |
| AGGGGGGC | -0.222 ± 0.034 |
| GAAGCGGC | -0.0142 ± 0.051 |
| AACTAGCC | -0.205 ± 0.024 |
| GACGTGAA | 0.0539 ± 0.037 |
| ACAGCAAG | 0.0389 ± 0.019 |
| ACGGCCCC | -0.229 ± 0.069 |
| ATTTACAA | 0.0685 ± 0.047 |
| ATAACTTG | 0.00955 ± 0.11 |
| TCCGTCAA | -0.0448 ± 0.01 |

| Sequence | PBM E-score of 8-mer |
| --- | --- |
| AATTTCAG | -0.0884 ± 0.025 |
| AATAACCG | -0.11 ± 0.063 |
| CCTTGCCC | -0.336 ± 0.03 |
| AAAACTTA | -0.0278 ± 0.071 |
| AGCCAAGG | -0.0291 ± 0.055 |
| TACATATA | -0.294 ± 0.032 |
| TCACAGGA | 0.236 ± 0.01 |
| CCATCTTC | -0.0429 ± 0.023 |
| TGTTGTAA | 0.221 ± 0.016 |
| AGACTAGA | -0.195 ± 0.017 |
| GGTCCGAA | -0.173 ± 0.029 |
| ACACCAAC | 0.338 ± 0.0059 |
| GCGGAACC | -0.185 ± 0.06 |
| ACGCTACA | 0.0609 ± 0.005 |
| CAACGTGA | 0.168 ± 0.029 |
| ATGATGCG | 0.104 ± 0.0042 |
| CCGCGCCG | -0.2096 ± 0.00042 |
| CCCGAGTC | -0.215 ± 0.031 |
| CACACCAC | 0.406 ± 0.012 |
| AATCCTTC | -0.171 ± 0.051 |
| TACGTTCA | -0.0836 ± 0.055 |
| AAACTGCG | 0.119 ± 0.018 |
| ATGCGCGG | -0.15 ± 0.099 |
| GTTTGTTA | 0.115 ± 0.015 |
| ATTGATCG | -0.0981 ± 0.03 |

| Sequence | PBM E-score of 8-mer |
| --- | --- |
| ATGGCAGA | -0.0257 ± 0.063 |
| CACGTACG | 0.253 ± 0.017 |
| AGACGGTC | -0.184 ± 0.014 |
| TGAGAGAA | 0.0636 ± 0.079 |
| ATAGCGAA | 0.00406 ± 0.04 |
| GTCACAGA | 0.0466 ± 0.051 |
| CCCTCTAA | -0.172 ± 0.097 |
| CAACTCGC | 0.296 ± 0.027 |
| ACCTAGAT | 0.0708 ± 0.0022 |
| CGTCCGTA | -0.0501 ± 0.025 |
| CTTGTCCA | -0.0373 ± 0.036 |
| CAACAATC | 0.147 ± 0.0091 |
| CTTATTTA | -0.284 ± 0.1 |
| TAGGCCGA | -0.0616 ± 0.048 |
| GCACCGGA | 0.063 ± 0.0078 |
| CCAATACC | -0.111 ± 0.0074 |
| CAACATGC | 0.0363 ± 0.04 |
| CTGTTTTA | 0.0135 ± 0.11 |
| CGAGTGGA | 0.133 ± 0.039 |
| AAAAGGTC | -0.0764 ± 0.033 |
| CGGCGCGC | 0.161 ± 0.0044 |
| ATCCAAAC | -0.236 ± 0.05 |
| AGATTCAC | 0.0897 ± 0.086 |
| AACCAGCC | -0.0414 ± 0.071 |
| TATATGGA | -0.225 ± 0.032 |

| Sequence | PBM E-score of 8-mer |
| --- | --- |
| ACGTGTTC | 0.2198 ± 0.001 |
| TACGCTAA | 0.122 ± 0.012 |
| CAAAAAAA | -0.183 ± 0.093 |
| CATCAGCG | 0.0643 ± 0.089 |
| AGTTCCAC | -0.125 ± 0.031 |
| CCGTAGAC | -0.229 ± 0.022 |
| ACCTTCCT | 0.0979 ± 0.013 |
| AACCCCTC | 0.0579 ± 0.061 |
| CAATAACG | 0.0278 ± 0.018 |
| CCCGATAA | 0.105 ± 0.034 |
| TCTGTGAA | 0.253 ± 0.0052 |
| CCAAGTGG | 0.00965 ± 0.033 |
| TATATTCA | -0.0222 ± 0.1 |
| GTATTGCA | -0.0787 ± 0.025 |
| CGCTCGGA | -0.212 ± 0.00066 |
| CAGTTATA | -0.0853 ± 0.032 |
| TAGTACCA | 0.0636 ± 0.0024 |
| AGTCGACG | 0.181 ± 0.059 |
| AGAGCACC | -0.108 ± 0.084 |
| ATTAACTC | -0.00281 ± 0.0078 |
| TGGCGCAA | 0.244 ± 0.028 |
| GCCGTGAA | 0.293 ± 0.014 |
| GGTGTCTA | 0.376 ± 0.007 |
| AGGGTAGC | 0.0784 ± 0.044 |
| GGGTGAAA | 0.0558 ± 0.043 |

| Sequence | PBM E-score of 8-mer |
| --- | --- |
| AGATTAAG | -0.189 ± 0.04 |
| AGCCGAGC | 0.0261 ± 0.069 |
| CATGCGTC | -0.166 ± 0.023 |
| ATATCTCG | 0.0341 ± 0.0036 |
| CGGTATGA | -0.169 ± 0.057 |
| GAGCGTCA | 0.141 ± 0.01 |
| GAGCGAAC | 0.0537 ± 0.089 |
| TCAATACA | 0.0169 ± 0.05 |
| GTGTGCTA | 0.3066 ± 0.0011 |
| ATAACACC | 0.465 ± 0.0066 |
| AATGAAAG | 0.12 ± 0.046 |
| AAGAGTCA | -0.136 ± 0.015 |
| AGCGAGTG | 0.184 ± 0.025 |
| CCTAGAGG | -0.0482 ± 0.018 |
| AAGTTACT | -0.169 ± 0.019 |
| GTTGACCA | 0.0825 ± 0.023 |
| ACTATACC | -0.00992 ± 0.066 |
| CGTACGGA | -0.184 ± 0.0045 |
| ATAAGCAG | 0.0168 ± 0.015 |
| ACCCGGGC | 0.117 ± 0.01 |
| CGCGCGCA | 0.18 ± 0.001 |
| ATCCTCGC | 0.196 ± 0.043 |
| GCACGTCC | 0.239 ± 0.0056 |
| TGTTCTAA | -0.155 ± 0.042 |
| AACGGGAC | -0.0811 ± 0.027 |

| Sequence | PBM E-score of 8-mer |
| --- | --- |
| CACCCCGA | 0.259 ± 0.018 |
| GTAGGATA | -0.0979 ± 0.0081 |
| ACGAGAAG | -0.0854 ± 0.037 |
| CTAGTACC | 0.042 ± 0.052 |
| TAAGCATA | -0.226 ± 0.023 |
| ATGAAGTC | -0.15 ± 0.06 |
| AATCCACG | -0.0596 ± 0.03 |
| AAATGGTT | 0.0765 ± 0.0015 |
| AATATAAC | 0.231 ± 0.056 |
| CGCCCGAC | 0.21 ± 0.0063 |
| ATGGGCCA | -0.105 ± 0.04 |
| CAGTCCAA | -0.118 ± 0.051 |
| ACACGAGA | 0.127 ± 0.077 |
| ACCGAAAG | -0.137 ± 0.04 |
| AGACAGCA | 0.0102 ± 0.029 |
| CATACTCG | 0.0863 ± 0.088 |
| TACTACAA | -0.149 ± 0.064 |
| AAGTGTTA | 0.467 ± 0.0064 |
| ACATAAAC | -0.0157 ± 0.067 |
| AGCGGACA | -0.175 ± 0.006 |
| AATAAACC | -0.29 ± 0.032 |
| ATTAACGC | 0.235 ± 0.052 |
